{"source": "the antibiotic and cytotoxicity screens of Wong et al. (2023)", "note": "The list shows a part of the results.", "data": [{"test_system": "HSkMC (human skeletal muscle cells)", "assay": "cytotoxicity call (relative viability < 0.9)", "details": "10 µM", "values": [{"smiles": "C[C@@H]1CN([C@@H](C)CO)C(=O)c2cccc(NC(=O)CCCCCC(=O)Nc3ccccc3N)c2O[C@@H]1CN(C)Cc1ccc(C(F)(F)F)cc1", "cytotoxicity call": "inactive"}, {"smiles": "C[C@H]1CN([C@@H](C)CO)C(=O)c2cc(C#CCN(C)C)cnc2O[C@@H]1CN(C)C(=O)CCN1CCCCC1", "cytotoxicity call": "inactive"}, {"smiles": "C[C@@H]1CN([C@@H](C)CO)C(=O)c2cc(N(C)C)ccc2O[C@@H](C)CCCCO[C@@H]1CN(C)C(=O)CCCN(C)C", "cytotoxicity call": "inactive"}, {"smiles": "Cc1noc(C)c1NC(=O)N(C)C[C@H]1Oc2ccc(NS(=O)(=O)c3ccccc3)cc2C(=O)N([C@H](C)CO)C[C@@H]1C", "cytotoxicity call": "inactive"}, {"smiles": "C[C@@H]1CN([C@@H](C)CO)C(=O)Cc2cc(NC(=O)Nc3cccc4ccccc34)ccc2O[C@@H]1CN(C)C(=O)NC1CCCCC1", "cytotoxicity call": "inactive"}, {"smiles": "C=CCC[C@@H](Cc1ccc(F)cc1)C(=O)O[C@@H](CNC(=O)[C@H](CC=C)CC(=O)N(CCO)Cc1ccccc1)c1ccccc1", "cytotoxicity call": "active"}, {"smiles": "COc1ccc(S(=O)(=O)Nc2ccc3c(c2)C(=O)N([C@H](C)CO)C[C@@H](C)[C@H](CN(C)CC2CCCCC2)OCCCC[C@@H](C)O3)cc1", "cytotoxicity call": "inactive"}, {"smiles": "O=C(C[C@@H]1C=C[C@H](NS(=O)(=O)c2ccc(F)cc2)[C@@H](CO)O1)NCc1ccc(Cl)c(Cl)c1", "cytotoxicity call": "inactive"}, {"smiles": "CCN1[C@@H]2c3ccc(-c4ccncc4)c(=O)n3C[C@H]1[C@H](CO)[C@H]2C(=O)NCCc1cn(C)cn1", "cytotoxicity call": "inactive"}, {"smiles": "C[C@@H]1CN([C@H](C)CO)C(=O)CCCn2nncc2CO[C@@H]1CN(C)C(=O)Nc1cccc2ccccc12", "cytotoxicity call": "inactive"}, {"smiles": "Cc1noc(C)c1NC(=O)N(C)C[C@H]1Oc2c(NC(=O)NC(C)C)cccc2C(=O)N([C@H](C)CO)C[C@H]1C", "cytotoxicity call": "inactive"}, {"smiles": "CC(C)(O)c1cn(-c2ccc(-c3cc(F)c(CO)c(S(C)(=O)=O)c3)cc2F)c(C(C)(C)c2c(Cl)cccc2Cl)n1", "cytotoxicity call": "inactive"}, {"smiles": "O=C(O)/C=C/C(=O)Nc1nccs1", "cytotoxicity call": "inactive"}, {"smiles": "CC1(C)N=C(N)N=C(N)N1c1ccccc1", "cytotoxicity call": "inactive"}, {"smiles": "COc1ccc(NC(=O)Nc2cccc3c2O[C@@H](CN(C)Cc2ccc(C(F)(F)F)cc2)[C@H](C)CN([C@H](C)CO)C3=O)cc1", "cytotoxicity call": "inactive"}, {"smiles": "C[C@@H]1CN([C@@H](C)CO)C(=O)c2cc(NC(=O)Nc3ccc(C(F)(F)F)cc3)ccc2O[C@@H]1CN(C)C(=O)Nc1ccc(F)cc1", "cytotoxicity call": "active"}, {"smiles": "CCNC(=O)[C@H]1[C@H](CO)[C@H]2Cn3c(ccc(C4=CCCC4)c3=O)[C@@H]1N2S(=O)(=O)c1cn(C)cn1", "cytotoxicity call": "inactive"}, {"smiles": "O=C1CSC(/N=C/c2ccccc2O)=NN1", "cytotoxicity call": "active"}, {"smiles": "COCC(=O)Nc1ccc2c(c1)C(=O)N(C)C[C@@H](OC)[C@@H](C)CN(C(=O)c1ccccc1F)[C@H](C)CO2", "cytotoxicity call": "inactive"}, {"smiles": "C[C@@H]1CN([C@@H](C)CO)C(=O)c2cc(NS(=O)(=O)c3cccs3)ccc2O[C@@H](C)CCCCO[C@@H]1CN(C)C(=O)c1ccccc1", "cytotoxicity call": "inactive"}, {"smiles": "COc1ccc(CN(C)C[C@H]2OCCCC[C@H](C)Oc3ccc(NS(=O)(=O)c4ccccc4)cc3C(=O)N([C@@H](C)CO)C[C@@H]2C)cc1", "cytotoxicity call": "inactive"}, {"smiles": "C[C@@H]1CN([C@@H](C)CO)C(=O)c2cccc(NC(=O)c3ccc(-c4nccs4)cc3)c2O[C@H]1CN(C)C(=O)NC1CCCCC1", "cytotoxicity call": "inactive"}, {"smiles": "COc1ccc(NC(=O)Nc2ccc3c(c2)C(=O)N([C@H](C)CO)C[C@H](C)[C@H](CN(C)S(=O)(=O)c2c(C)noc2C)OCCCC[C@@H](C)O3)cc1", "cytotoxicity call": "inactive"}, {"smiles": "C[C@@H]1CN([C@@H](C)CO)C(=O)c2cc(NS(=O)(=O)c3ccc(F)cc3)ccc2O[C@@H](C)CCCCO[C@@H]1CN(C)C(=O)Cc1ccccc1", "cytotoxicity call": "inactive"}, {"smiles": "C[C@@H]1CN([C@H](C)CO)C(=O)c2cc(NC(=O)CCCCCC(=O)Nc3ccccc3N)ccc2O[C@@H]1CN(C)C(=O)Nc1ccc(F)cc1", "cytotoxicity call": "inactive"}, {"smiles": "C[C@H]1CN([C@@H](C)CO)C(=O)c2cc(-c3ccc(C#N)cc3)cnc2O[C@@H]1CN(C)C(=O)Nc1ccc(C(F)(F)F)cc1", "cytotoxicity call": "inactive"}, {"smiles": "C[C@@H]1CN([C@H](C)CO)C(=O)c2cc(NC(=O)Nc3ccc4c(c3)OCO4)ccc2O[C@@H](C)CCCCO[C@@H]1CN(C)C(=O)c1ccccc1", "cytotoxicity call": "inactive"}, {"smiles": "COc1ccc(-c2oc3c(CC=C(C)C)c(OC4OC(CO)C(O)C(O)C4O)cc(O)c3c(=O)c2OC2OC(C)C(O)C(O)C2O)cc1", "note": "(centres undefined)", "cytotoxicity call": "inactive"}, {"smiles": "CN(C)CCCNC(=O)C[C@@H]1CC[C@H]2[C@@H](COc3ccc(NC(=O)NC4CCCC4)cc3C(=O)N2C)O1", "cytotoxicity call": "inactive"}]}]}
